Some of the results follow.
B1: PhoQ; a variant is named by its letters at X, in order, P23837 (parent)
chain: MKKLLRLFFPLSLRVRFLLATAAVVLVLSLAYGMVALIGYSVSFDKTTFRLLRGESNLFYTLAKWENNKLHVELPENIDKQSPTMTLIYDENGQLLWAQRDVPWLMKMIQPDWLKSNGFHEIEADVNDTSLLLSGDHSIQQQLQEVREDDDDAEMTHSVAVNVYPATSRMPKLTIVVVDTIPVELKSSYMVWSWFIYVLSANLLLVIPLLWVAAWWSLRPIEALAKEVRELEEHNRELLNPATTRELTSLVRNLNRLLKSERERYDKYRTTLTDLTHSLKTPLXXLQXXLRSLRSEKMSVSDAEPVMLEQISRISQQIGYYLHRASMRGGTLLSRELHPVAPLLDNLTSALNKVYQRKGVNISLDISPEISFVGEQNDFVEVMGNVLDNACKYCLEFVEISARQTDEHLYIVVEDDGPGIPLSKREVIFDRGQRVDTLRPGQGVGLAVAREITEQYEGKIVAGESMLGGARMEVIFGRQHSAPKDE

Variants of: B1
Experiment: enrichment ratio after two sorts for PhoP signalling (ratio (wild type AVST 3.29)); higher = more functional
Conditions: with PhoP (E. coli)

Variant | enrichment ratio
MYLQ | ≤ 0.25
DMNV | ≤ 0.25
TDMH | 18.2
TPSI | ≤ 0.25
GCML | 3.33
VQTP | ≤ 0.25
VYFC | ≤ 0.25
MHKV | ≤ 0.25
IRNV | ≤ 0.25
SKVP | ≤ 0.25
DWHF | ≤ 0.25
MMGN | ≤ 0.25
GCRM | ≤ 0.25
GSAN | ≤ 0.25
LSCN | ≤ 0.25
DLYA | ≤ 0.25
TKIL | 8.86
LSLT | ≤ 0.25
LWHC | ≤ 0.25
DRVN | ≤ 0.25
EHDC | ≤ 0.25
FHKW | ≤ 0.25
LIQG | ≤ 0.25
PYPI | 0.499
IGIN | ≤ 0.25

Variant | enrichment ratio
SAHL | 1.54
KRPD | ≤ 0.25
TGFC | 0.254
VPQR | ≤ 0.25
IQDN | ≤ 0.25
VMTS | ≤ 0.25
FWLD | ≤ 0.25
EITL | ≤ 0.25
HQAQ | ≤ 0.25
VMWP | ≤ 0.25
SPCL | ≤ 0.25
HNFD | ≤ 0.25
WPLL | ≤ 0.25
RHIL | ≤ 0.25
GNMP | ≤ 0.25
NTGV | ≤ 0.25
YLRA | ≤ 0.25
IYAT | ≤ 0.25
YSHP | ≤ 0.25
KWSF | ≤ 0.25
PTML | ≤ 0.25
WVIK | ≤ 0.25
PWGD | ≤ 0.25
DMLE | ≤ 0.25
DPVT | ≤ 0.25

Variant | enrichment ratio
SHNV | 1.91
DVEG | ≤ 0.25
AHVK | ≤ 0.25
GFRH | ≤ 0.25
PVHQ | ≤ 0.25
FCKN | ≤ 0.25
QIAV | ≤ 0.25
DNHK | ≤ 0.25
WHKV | ≤ 0.25
VEHH | ≤ 0.25
QDLM | ≤ 0.25
TGIG | 4.21
DSPT | ≤ 0.25
SDRC | ≤ 0.25
QYTQ | ≤ 0.25
HQHE | ≤ 0.25
HRRR | ≤ 0.25
NLIM | ≤ 0.25
GFSR | ≤ 0.25
RNGQ | ≤ 0.25
LHAA | ≤ 0.25
GKTG | ≤ 0.25
APFW | ≤ 0.25
TVLG | 2.52
DEIW | ≤ 0.25

Variant | enrichment ratio
HFWT | ≤ 0.25
NDYP | ≤ 0.25
SRSN | ≤ 0.25
SMIL | ≤ 0.25
YRPV | ≤ 0.25
LWGT | ≤ 0.25
QSFV | 7.11
YMTS | ≤ 0.25
IQKK | ≤ 0.25
SIYC | 0.522
SIIV | 0.966
IIIP | ≤ 0.25
KHDQ | ≤ 0.25
TEDR | ≤ 0.25
HDEH | ≤ 0.25
FMGF | ≤ 0.25
FCYK | ≤ 0.25
NMHF | ≤ 0.25
QRRY | ≤ 0.25
TLKP | ≤ 0.25
RYWV | ≤ 0.25
TPPE | ≤ 0.25
RFYN | ≤ 0.25
HMFK | ≤ 0.25
KECQ | ≤ 0.25

Variant | enrichment ratio
PPGM | ≤ 0.25
LKLC | ≤ 0.25
IGAP | ≤ 0.25
RMRK | ≤ 0.25
RQLW | ≤ 0.25
REDH | ≤ 0.25
GGDY | ≤ 0.25
ERFP | ≤ 0.25
WYRH | ≤ 0.25
NAKL | ≤ 0.25
LVTM | ≤ 0.25
SERD | ≤ 0.25
DSIQ | ≤ 0.25
VCMA | ≤ 0.25
PCSH | ≤ 0.25
ICQI | ≤ 0.25
YKSN | ≤ 0.25
QVGF | 5.91
LNNI | ≤ 0.25
DPYS | ≤ 0.25
YFGL | ≤ 0.25
PTTP | ≤ 0.25
TRQM | ≤ 0.25
YNPY | ≤ 0.25
NLDR | ≤ 0.25

Variant | enrichment ratio
GNIK | ≤ 0.25
ICIG | ≤ 0.25
KLRQ | ≤ 0.25
FLEY | ≤ 0.25
VIFR | ≤ 0.25
LPAY | ≤ 0.25
DTQP | ≤ 0.25
VPGM | ≤ 0.25
VFTR | ≤ 0.25
TRWM | ≤ 0.25
AYEG | ≤ 0.25
YQLL | 3.83
WIPA | ≤ 0.25
TDYR | ≤ 0.25
PDSY | ≤ 0.25
RERG | ≤ 0.25
STWD | ≤ 0.25
LKCT | ≤ 0.25
IRAA | ≤ 0.25
MDSS | ≤ 0.25
RLQT | ≤ 0.25
NHDR | ≤ 0.25
QKSF | ≤ 0.25
GNFY | ≤ 0.25
LNNC | ≤ 0.25

Variant | enrichment ratio
NQID | ≤ 0.25
HKMP | ≤ 0.25
HLSV | ≤ 0.25
RAGK | ≤ 0.25
DEIV | ≤ 0.25
LRPT | ≤ 0.25
ASNK | ≤ 0.25
YPMM | ≤ 0.25
ILQT | ≤ 0.25
EIFS | ≤ 0.25
VMKL | ≤ 0.25
NTQY | ≤ 0.25
GRWM | ≤ 0.25
HMYW | ≤ 0.25
NHGH | ≤ 0.25
SKEF | ≤ 0.25
SIWY | ≤ 0.25
ARMS | 1.54
PRAR | ≤ 0.25
EFDC | ≤ 0.25
SGRR | ≤ 0.25
WQFH | ≤ 0.25
DTWF | ≤ 0.25
DRPP | ≤ 0.25
TRFI | ≤ 0.25

Variant | enrichment ratio
VVTC | ≤ 0.25
SLTH | 5.18
RSQQ | ≤ 0.25
SPFI | ≤ 0.25
GRDP | ≤ 0.25
TPCW | ≤ 0.25
DKAS | ≤ 0.25
SKNT | ≤ 0.25
ELHS | ≤ 0.25
QREY | ≤ 0.25
VEVN | 1.11
IMHQ | ≤ 0.25
PWGP | ≤ 0.25
ECFM | ≤ 0.25
NYVM | ≤ 0.25
ARGN | ≤ 0.25
IWIM | ≤ 0.25
YQDQ | ≤ 0.25
PMHF | ≤ 0.25
ASEH | ≤ 0.25
